# Measurements reported in the supplement of paper PMC8728848.
# The other results are listed elsewhere or left out.
# B1: SefD (Salmonella enterica), Q9L6K6 (protein)
# chain: GAYIIRGQNNSAHKLRIRIGGEDWQPDNSGIGMVSHSDFTNEFNIYYFGNGDIPVDTYLISIYATEIEL
# Legend:
# Assay in all cases: glycan array binding signal (z-score within array); higher = stronger binding
# Conditions in all cases: glycan notation: IUPAC condensed, linker removed
# [1] = molecular target: Fuc(a1-2)[GalNAc(a1-3)]Gal(b1-4)Glc
# Procedure, shortened: (§1)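 The binding signal is a Z-score computed within each array. Data were drawn from 3228 arrays in the Consortium for Functional Glycomics database, restricted to those with a known protein sequence. Scores were averaged over arrays of the same protein sequence at different concentrations or buffers, and over linkers, and negative values can be taken as non-binding.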
# [2] = molecular target: Fuc(a1-2)[GalNAc(a1-3)]Gal(b1-4)GlcNAc
# Procedure, shortened: as §1
# [3] = molecular target: Fuc(a1-2)[GalNAc(a1-3)]Gal(b1-4)GlcNAc(b1-2)Man(a1-3)[Fuc(a1-2)[GalNAc(a1-3)]Gal(b1-4)GlcNAc(b1-2)Man(a1-6)]Man(b1-4)GlcNAc(b1-4)GlcNAc
# Procedure, shortened: as §1
# [4] = molecular target: Fuc(a1-2)[GalNAc(a1-3)]Gal(b1-4)GlcNAc(b1-2)Man(a1-3)[Fuc(a1-2)[GalNAc(a1-3)]Gal(b1-4)GlcNAc(b1-2)Man(a1-6)]Man(b1-4)GlcNAc(b1-4)[Fuc(a1-6)]GlcNAc
# Procedure, shortened: as §1
# [5] = molecular target: Fuc(a1-2)[GalNAc(a1-3)]Gal(b1-4)GlcNAc(b1-3)Gal(b1-4)GlcNAc
# Procedure, shortened: as §1
# [6] = molecular target: Fuc(a1-2)[GalNAc(a1-3)]Gal(b1-4)GlcNAc(b1-3)Gal(b1-4)GlcNAc(b1-3)Gal(b1-4)GlcNAc
# Procedure, shortened: as §1
# [7] = molecular target: Fuc(a1-2)[GalNAc(a1-3)]Gal(b1-4)GlcNAc(b1-3)GalNAc
# Procedure, shortened: as §1
# [8] = molecular target: Fuc(a1-2)[GalNAc(a1-3)]Gal(b1-4)[Fuc(a1-3)]GlcNAc
# Procedure, shortened: as §1
# [9] = molecular target: Fuc(a1-2)[GalNAc(a1-3)]Gal(b1-4)[Fuc(a1-3)]GlcNAc(b1-3)GalNAc
# Procedure, shortened: as §1
# [10] = molecular target: Fuc(a1-2)[GalNAc(a1-4)]Gal(b1-4)GlcNAc
# Procedure, shortened: as §1
# [11] = molecular target: Fuc(a1-2)[GalNAc(b1-3)]Gal
# Procedure, shortened: as §1
# Fuc(a1-3)GlcNAc = molecular target: Fuc(a1-3)GlcNAc
# Procedure, shortened: as §1
# [12] = molecular target: Fuc(a1-3)[Gal(b1-4)]Glc6S
# Procedure, shortened: as §1
# [13] = molecular target: Fuc(a1-3)[Gal(b1-4)]GlcNAc
# Procedure, shortened: as §1
# [14] = molecular target: Fuc(a1-3)[Gal(b1-4)]GlcNAc(b1-2)Man(a1-3)[Fuc(a1-3)[Gal(b1-4)]GlcNAc(b1-2)Man(a1-6)]Man(b1-4)GlcNAc(b1-4)GlcNAc
# Procedure, shortened: as §1
# [15] = molecular target: Fuc(a1-3)[Gal(b1-4)]GlcNAc(b1-2)Man(a1-3)[Fuc(a1-3)[Gal(b1-4)]GlcNAc(b1-2)Man(a1-6)]Man(b1-4)GlcNAc(b1-4)[Fuc(a1-6)]GlcNAc
# Procedure, shortened: as §1
# [16] = molecular target: Fuc(a1-3)[Gal(b1-4)]GlcNAc(b1-3)Gal(b1-3)[Fuc(a1-4)]GlcNAc
# Procedure, shortened: as §1
# [17] = molecular target: Fuc(a1-3)[Gal(b1-4)]GlcNAc(b1-3)GalNAc
# Procedure, shortened: as §1
# [18] = molecular target: Fuc(a1-3)[Gal(b1-4)]GlcNAc(b1-4)Gal(b1-4)[Fuc(a1-3)]GlcNAc
# Procedure, shortened: as §1
# [19] = molecular target: Fuc(a1-3)[Gal(b1-4)]GlcNAc(b1-4)Gal(b1-4)[Fuc(a1-3)]GlcNAc(b1-4)Gal(b1-4)[Fuc(a1-3)]GlcNAc
# Procedure, shortened: as §1
# [20] = molecular target: Fuc(a1-3)[Gal(b1-4)]GlcNAc(b1-6)GalNAc
# Procedure, shortened: as §1
# [21] = molecular target: Fuc(a1-3)[Gal(b1-4)]GlcNAc(b1-6)[Gal(b1-3)GlcNAc(b1-3)]Gal(b1-4)Glc
# Procedure, shortened: as §1
# [22] = molecular target: Fuc(a1-3)[Gal(b1-4)]GlcNAc(b1-6)[Neu5Ac(a2-3)Gal(b1-3)]GalNAc
# Procedure, shortened: as §1
# [23] = molecular target: Fuc(a1-3)[Gal(b1-4)]GlcNAc6S
# Procedure, shortened: as §1
# [24] = molecular target: Fuc(a1-3)[Gal3S(b1-4)]GlcNAc
# Procedure, shortened: as §1
# [25] = molecular target: Fuc(a1-3)[Gal3S(b1-4)]GlcNAc6S
# Procedure, shortened: as §1
# [26] = molecular target: Fuc(a1-3)[GalNAc(b1-4)]GlcNAc
# Procedure, shortened: as §1
# Fuc(a1-4)GlcNAc = molecular target: Fuc(a1-4)GlcNAc
# Procedure, shortened: as §1
# Fuc(b1-3)GlcNAc = molecular target: Fuc(b1-3)GlcNAc
# Procedure, shortened: as §1
# Gal(a1-2)Gal = molecular target: Gal(a1-2)Gal
# Procedure, shortened: as §1
# Gal(a1-3)Gal = molecular target: Gal(a1-3)Gal
# Procedure, shortened: as §1
# Gal(a1-3)Gal(b1-3)GlcNAc = molecular target: Gal(a1-3)Gal(b1-3)GlcNAc
# Procedure, shortened: as §1
# [27] = molecular target: Gal(a1-3)Gal(b1-3)GlcNAc(b1-2)Man(a1-3)[Gal(a1-3)Gal(b1-3)GlcNAc(b1-2)Man(a1-6)]Man(b1-4)GlcNAc(b1-4)GlcNAc
# Procedure, shortened: as §1
# [28] = molecular target: Gal(a1-3)Gal(b1-3)GlcNAc(b1-3)GalNAc
# Procedure, shortened: as §1
# [29] = molecular target: Gal(a1-3)Gal(b1-3)[Fuc(a1-4)]GlcNAc(b1-2)Man(a1-3)[Gal(a1-3)Gal(b1-3)[Fuc(a1-4)]GlcNAc(b1-2)Man(a1-6)]Man(b1-4)GlcNAc(b1-4)GlcNAc
# Procedure, shortened: as §1
# Gal(a1-3)Gal(b1-4)Glc = molecular target: Gal(a1-3)Gal(b1-4)Glc
# Procedure, shortened: as §1
# Gal(a1-3)Gal(b1-4)GlcNAc = molecular target: Gal(a1-3)Gal(b1-4)GlcNAc
# Procedure, shortened: as §1
# [30] = molecular target: Gal(a1-3)Gal(b1-4)GlcNAc(b1-3)GalNAc
# Procedure, shortened: as §1
# [31] = molecular target: Gal(a1-3)Gal(b1-4)[Fuc(a1-3)]GlcNAc
# Procedure, shortened: as §1
# [32] = molecular target: Gal(a1-3)Gal(b1-4)[Fuc(a1-3)]GlcNAc(b1-2)Man(a1-3)[Gal(a1-3)Gal(b1-4)[Fuc(a1-3)]GlcNAc(b1-2)Man(a1-6)]Man(b1-4)GlcNAc(b1-4)GlcNAc
# Procedure, shortened: as §1
# Gal(a1-3)GalNAc = molecular target: Gal(a1-3)GalNAc
# Procedure, shortened: as §1
# [33] = molecular target: Gal(a1-3)[Gal(a1-4)]Gal(b1-4)GlcNAc
# Procedure, shortened: as §1
# [34] = molecular target: Gal(a1-4)Gal(b1-3)GlcNAc(b1-2)Man(a1-3)[Gal(a1-4)Gal(b1-3)GlcNAc(b1-2)Man(a1-6)]Man(b1-4)GlcNAc(b1-4)GlcNAc
# Procedure, shortened: as §1
# Gal(a1-4)Gal(b1-4)Glc = molecular target: Gal(a1-4)Gal(b1-4)Glc
# Procedure, shortened: as §1
# Gal(a1-4)Gal(b1-4)GlcNAc = molecular target: Gal(a1-4)Gal(b1-4)GlcNAc
# Procedure, shortened: as §1
# [35] = molecular target: Gal(a1-4)Gal(b1-4)GlcNAc(b1-2)Man(a1-3)[Gal(a1-4)Gal(b1-4)GlcNAc(b1-2)Man(a1-6)]Man(b1-4)GlcNAc(b1-4)GlcNAc
# Procedure, shortened: as §1
# [36] = molecular target: Gal(a1-4)Gal(b1-4)GlcNAc(b1-3)Gal(b1-4)Glc
# Procedure, shortened: as §1
# Gal(a1-4)GlcNAc = molecular target: Gal(a1-4)GlcNAc
# Procedure, shortened: as §1
# Gal(a1-6)Glc = molecular target: Gal(a1-6)Glc
# Procedure, shortened: as §1
# Gal(b1-2)Gal = molecular target: Gal(b1-2)Gal
# Procedure, shortened: as §1
# Gal(b1-3)Gal = molecular target: Gal(b1-3)Gal
# Procedure, shortened: as §1
# Gal(b1-3)Gal(b1-4)GlcNAc = molecular target: Gal(b1-3)Gal(b1-4)GlcNAc
# Procedure, shortened: as §1
# [37] = molecular target: Gal(b1-3)Gal(b1-4)GlcNAc(b1-2)Man(a1-3)[Gal(b1-3)Gal(b1-4)GlcNAc(b1-2)Man(a1-6)]Man(b1-4)GlcNAc(b1-4)GlcNAc
# Procedure, shortened: as §1
# Gal(b1-3)GalNAc = molecular target: Gal(b1-3)GalNAc
# Procedure, shortened: as §1
# [38] = molecular target: Gal(b1-3)GalNAc(a1-3)[Fuc(a1-2)]Gal(b1-4)Glc
# Procedure, shortened: as §1
# [39] = molecular target: Gal(b1-3)GalNAc(a1-3)[Fuc(a1-2)]Gal(b1-4)GlcNAc
# Procedure, shortened: as §1
# [40] = molecular target: Gal(b1-3)GalNAc(b1-3)Gal(a1-4)Gal(b1-4)Glc
# Procedure, shortened: as §1
# [41] = molecular target: Gal(b1-3)GalNAc(b1-4)Gal(b1-4)Glc
# Procedure, shortened: as §1
# [42] = molecular target: Gal(b1-3)GalNAc(b1-4)[Neu5Ac(a2-3)]Gal(b1-4)Glc
# Procedure, shortened: as §1
# Gal(b1-3)GlcNAc = molecular target: Gal(b1-3)GlcNAc
# Procedure, shortened: as §1
binder,measurement,setting,value
B1,glycan array binding signal (z-score),[1],-0.362
same,glycan array binding signal (z-score),[2],-0.263
same,glycan array binding signal (z-score),[3],0.144
same,glycan array binding signal (z-score),[4],-0.277
same,glycan array binding signal (z-score),[5],-0.244
same,glycan array binding signal (z-score),[6],0.382
same,glycan array binding signal (z-score),[7],-0.427
same,glycan array binding signal (z-score),[8],-0.141
same,glycan array binding signal (z-score),[9],0.921
same,glycan array binding signal (z-score),[10],-0.114
same,glycan array binding signal (z-score),[11],-0.295
same,glycan array binding signal (z-score),Fuc(a1-3)GlcNAc,-0.283
same,glycan array binding signal (z-score),[12],-0.328
same,glycan array binding signal (z-score),[13],-0.402
same,glycan array binding signal (z-score),[14],-0.372
same,glycan array binding signal (z-score),[15],-0.349
same,glycan array binding signal (z-score),[16],0.899
same,glycan array binding signal (z-score),[17],-0.049
same,glycan array binding signal (z-score),[18],-0.335
same,glycan array binding signal (z-score),[19],-0.46
same,glycan array binding signal (z-score),[20],-0.53
same,glycan array binding signal (z-score),[21],-0.272
same,glycan array binding signal (z-score),[22],0.271
same,glycan array binding signal (z-score),[23],-0.156
same,glycan array binding signal (z-score),[24],0.454
same,glycan array binding signal (z-score),[25],0.807
same,glycan array binding signal (z-score),[26],-0.127
same,glycan array binding signal (z-score),Fuc(a1-4)GlcNAc,2.37
same,glycan array binding signal (z-score),Fuc(b1-3)GlcNAc,-0.443
same,glycan array binding signal (z-score),Gal(a1-2)Gal,0.679
same,glycan array binding signal (z-score),Gal(a1-3)Gal,0.448
same,glycan array binding signal (z-score),Gal(a1-3)Gal(b1-3)GlcNAc,1.52
same,glycan array binding signal (z-score),[27],0.335
same,glycan array binding signal (z-score),[28],-0.256
same,glycan array binding signal (z-score),[29],-0.202
same,glycan array binding signal (z-score),Gal(a1-3)Gal(b1-4)Glc,-0.204
same,glycan array binding signal (z-score),Gal(a1-3)Gal(b1-4)GlcNAc,-0.452
same,glycan array binding signal (z-score),[30],-0.409
same,glycan array binding signal (z-score),[31],-0.196
same,glycan array binding signal (z-score),[32],0.173
same,glycan array binding signal (z-score),Gal(a1-3)GalNAc,-0.238
same,glycan array binding signal (z-score),[33],0.162
same,glycan array binding signal (z-score),[34],-0.091
same,glycan array binding signal (z-score),Gal(a1-4)Gal(b1-4)Glc,-0.442
same,glycan array binding signal (z-score),Gal(a1-4)Gal(b1-4)GlcNAc,0.556
same,glycan array binding signal (z-score),[35],1.29
same,glycan array binding signal (z-score),[36],-0.505
same,glycan array binding signal (z-score),Gal(a1-4)GlcNAc,1.29
same,glycan array binding signal (z-score),Gal(a1-6)Glc,-0.405
same,glycan array binding signal (z-score),Gal(b1-2)Gal,-0.458
same,glycan array binding signal (z-score),Gal(b1-3)Gal,-0.422
same,glycan array binding signal (z-score),Gal(b1-3)Gal(b1-4)GlcNAc,2.24
same,glycan array binding signal (z-score),[37],1.78
same,glycan array binding signal (z-score),Gal(b1-3)GalNAc,0.146
same,glycan array binding signal (z-score),[38],-0.235
same,glycan array binding signal (z-score),[39],-0.06
same,glycan array binding signal (z-score),[40],0.095
same,glycan array binding signal (z-score),[41],-0.338
same,glycan array binding signal (z-score),[42],0.446
same,glycan array binding signal (z-score),Gal(b1-3)GlcNAc,1.14
